Experimental data from the supplement of paper PMC5499739.
The full ranking holds about 16,000 sequences; the median of “Z-score” is about -0.37, and the highest 2% start at about 3.2. Some of the results follow.

Test system: RBM10 RRM1-ZnF (GST-tagged construct)
Experiment: RNAcompete 7-mer binding Z-score; higher = stronger binding preference
Method in brief: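 A one-sided Z-score for enrichment, taken across the probes containing each heptamer motif, was assigned to every such motif. The RNA came from a designed pool of 241 399 sequences up to 41 nt (1.5 nmol), bound by 20 pmol of GST-tagged RBM10 constructs in 1 ml Hepes pH 7.8 buffer with glutathione Sepharose beads for 30 min at 4°C. Four 2-min washes at 4°C preceded identification of bound RNA by microarray hybridisation.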

Sequence	RNAcompete 7-mer binding Z-score
GCUAAUU	-0.688
CAACUCC	-0.626
GGAAAUG	3.11
CUGGUAC	-0.386
UUUUGAU	-0.629
UGAGACC	-0.353
AAGAAAC	-0.0122
AGUGUCU	-0.402
AAUGAAG	0.332
UAAGAUG	0.43
CGGCAAA	0.157
CGAUGUG	0.267
ACCGCCA	-0.461
UGGCUCU	-0.405
GGCCCCU	-0.451
GCUGUUG	-0.191
CUAUACG	-0.62
GCUUCUA	-0.756
UGCCACC	-0.532
UCCGGAA	-0.347
GAUGGGC	2.15
CUUCGAC	-0.72
AAUGCAU	-0.61
UAGUCGU	-0.223
GCAGAGC	0.342

Sequence	RNAcompete 7-mer binding Z-score
UAGAACU	-0.155
GAGUGGC	1.53
GUCGGAA	0.8
GAUCGUG	0.153
CUUUUAC	-0.87
UGGCUAU	-0.0804
CUGGCAA	-0.477
CAUCUGU	-0.893
UCUCUUG	-0.714
GACUAGA	-0.0285
CGAGACA	-0.327
GCCACUU	-0.863
CUGCCUA	-0.659
GCGCUCU	-0.636
UCUUACA	-0.733
CUGGGAA	1.47
CAGGCGG	1.47
CCCUAUG	-0.779
UAUUCCC	-0.779
AUCCAUA	-0.912
ACACUUG	-0.535
UGGGAUA	3.05
ACCGAAU	-0.668
CCGCUGA	-0.584
AAGUAGG	2.37

Sequence	RNAcompete 7-mer binding Z-score
AACGCAG	-0.0512
AAAAUAU	-0.324
CCGCACG	-0.522
UGUACUU	-0.737
UUGCAAG	-0.197
UCCAGCG	-0.412
UAAGAUU	-0.448
UUUUAGG	0.111
CCGGAAU	-0.227
AAGCCUC	-0.74
CGUGUCU	-0.581
UCUUGAU	-0.857
AUCUAUG	-0.418
ACCAUAA	-0.73
ACGCUCG	-0.636
GGCGAUA	0.472
UAGACUG	-0.103
UCUGCAC	-0.503
CGAGGUG	2
ACCGGAG	0.677
ACGAACG	-0.181
AAUAGGA	1.56
GCCCGCU	-0.441
CAACUAA	-0.561
AUAUGGG	2.89

Sequence	RNAcompete 7-mer binding Z-score
UUGGACC	0.0268
UGCGCUA	-0.47
AACGGUU	1.1
UUACGCG	-0.331
CCUUGAG	-0.72
GAAUUUU	-0.642
AUGACUC	-0.548
GGCUUCU	-0.581
UCGAAGU	-0.103
AAAGAAG	0.813
AGUGACG	1
AACCCUU	-0.958
GCAAAGG	1.81
ACGCGGC	-0.171
GCGCCGU	-0.249
CGCAUAG	-0.262
UAAUAGC	-0.655
UUAUAAA	-0.467
GUAAUUC	-0.373
ACGUAAG	0.03
CAGCAAA	-0.279
CUACAGU	-0.798
GAUCUAG	-0.48
UGACCGA	-0.441
CAGAUAU	-0.584

Sequence	RNAcompete 7-mer binding Z-score
CAUGUCG	-0.487
ACUUUAC	-0.902
GCUUGGG	1.89
CAACACU	-0.526
CAUGGAA	1.1
UUCGGGC	0.0918
GAGCCAU	-0.477
UCGAAUG	-0.431
UAUUGAA	-0.392
GACCUUA	-0.993
CUGGUGA	0.787
AGAAUUU	-0.506
GAUUUAG	0.43
GUGCUUC	-0.454
GUCAGCU	-0.425
CGGUGCU	0.485
AUCUUGC	-0.935
GGUGGCA	2.02
UGAAGCG	0.608
AGGGACG	2.13
CCGAGUU	-0.841
AUAUCUU	-0.629
UAGGAGU	2.44
GGGCAUA	1.66
AGCGAUU	-0.269

Sequence	RNAcompete 7-mer binding Z-score
GUCCCCA	-0.269
UAUCUCA	-0.61
UAGAUGU	0.241
GCUGCUC	-0.415
GUACUCA	-0.542
GAUUGAG	1.33
ACUGGUG	1.29
CCGACGA	-0.464
UCGUUCG	-0.581
CCACAAC	-0.535
UGAGCGC	-0.132
AUAAAUC	-0.659
CAUUUUC	-0.938
AACCGCU	-0.824
UAGCGGA	1.13
UGGUAAU	0.914
AGUUGAC	0.115
UGGGUUU	2.64
UUGGUUC	-0.344
ACCCCGA	-0.158
CUCAGUC	-0.824
GGGAUUC	1.12
UCGAGGC	0.0755
GGCUACA	-0.103
AUCAUGU	-0.366

Sequence	RNAcompete 7-mer binding Z-score
UAAACGG	0.677
UUCUUAA	-0.724
CGUCCGA	-0.707
GAGUUAG	1.02
CACCAUU	-0.86
GGGGUGG	4.71
UUUACUC	-0.743
UCGCUGA	-0.448
ACGUGCA	-0.035
AUGGUCG	0.92
UAUUGCC	-0.795
UAGACCG	-0.188
AGGAUGA	1.63
CAUAGGU	0.761
CCGCGUG	-0.0512
CCCGAGC	-0.493
CAACGGG	2.16
UAGCGUU	-0.405
AUGGGUC	2.19
GAUAAUC	-0.376
AGACCGA	-0.857
GAGUAUG	1.15
AGGAAUA	0.881
AAAGUUA	0.082
GAUAACU	-0.415

Sequence	RNAcompete 7-mer binding Z-score
AAUGCGA	0.069
CUUACUA	-0.74
CUCCCCU	-0.314
GUGGUUC	0.716
GUAUGGC	0.917
GAGGGCA	2.12
CGCAGUC	-0.561
CUAAACA	-0.604
CACUUAA	-0.85
GGGAGCU	1.92
GCGGGUA	2.88
GCCUUAG	-0.483
UACCAUC	-0.756
AAUCUCU	-0.932
AUGCUAG	-0.207
AGAUCUG	-0.483
AAUGUGC	-0.0155
GCCGCGG	0.241
UAUUGCG	-0.376
CGCGUGG	1.63
ACUCGCG	-0.503
GACUACA	-0.532
CGUUCCG	-0.62
CAGAACA	-0.337
UCCGGCG	-0.275

Sequence	RNAcompete 7-mer binding Z-score
CGGUAGC	0.176
UAGUCAU	-0.444
UUGUAAA	-0.431
GCGCGGA	1.08
UCUUCCA	-0.704
CUAGCCA	-0.727
UAAGAGU	0.374
ACCGCUC	-0.75
AAUCCUG	-0.769
GAUUGCC	-0.633
GUUUGUG	0.865
UGCUCAG	-0.308
CGACUAG	-0.0609
AUAGCCA	-0.431
GGGGCUU	1.38
GGUAGUG	2.47
GUAGGCA	1.31
CGAUUGC	-0.785
AGACACA	-0.506
ACCGAUA	-0.607
GAACCGG	0.391
ACAGACU	-0.386
CAAGCCG	-0.629
AUGGCGC	0.287
CACUAAC	-0.675

Sequence	RNAcompete 7-mer binding Z-score
CCCCGGU	-0.0544
CUAUUUG	-0.691
CGCUCCU	-0.587
GAGGCGC	0.761
ACAUGGG	2.66
AUGCAAG	0.472
CAUAUGU	-0.428
ACGCACU	-0.694
UUGAUAG	0.209
UGCUCAC	-0.61
CACGCAU	-0.639
ACGGUUC	-0.0772
CCUUACA	-0.928
ACAACCG	-0.474
GUAGAGA	1.43
CAGUUAG	-0.171
CGGCGGA	0.862
UACCCCA	-0.493
CCAAACU	-0.672
CCUUUAA	-0.899
CCUACUG	-0.759
GGCUCUA	-0.36
UAUGGCU	-0.149
AACCUGG	-0.256
UAUGUGU	0.124

Sequence	RNAcompete 7-mer binding Z-score
UCCCGGU	-0.0772
CAAGGAG	2.17
UGGCAUC	-0.171
GCCAAGC	-0.539
ACAGCUU	-0.896
AGUAUUG	-0.168
UAUAAGU	-0.158
CUGCAGC	-0.522
UGCGUUU	-0.249
ACGGCGA	0.371
GUAGACA	0.82
CAAGAAG	0.111
GUGCAGU	0.439
CUUCCUA	-0.844
CAGUAGU	-0.178
UCACAGG	0.647
CCAAAGA	-0.487
UCGUCGG	-0.22
CCAAGCG	-0.454
UGUCCGA	-0.792
CUUGUAA	-0.617
AGGGGAA	3.57
UUUUGGA	0.000789
UCGUAUA	-0.236
CCUAUAG	-0.779

Sequence	RNAcompete 7-mer binding Z-score
ACCAUCC	-0.893
CGUCGUG	-0.103
AAUUGGC	0.553
UAAGCUC	-0.503
AAAAUGC	-0.197
UGUGUCG	0.043
GUGCGAA	0.638
AAAUUGC	-0.548
UAGGCGC	-0.236
GUAUACG	0.251
AUGUGAG	1.02
AGGGAAU	3.05
UGCGCCA	-0.412
UAGCAUU	-0.558
AGGACAC	0.378
GAAGUAC	-0.0285
GUGGUCA	0.94
GACCCUA	-0.837
GUCUCGA	-0.591
UAGCCAA	-0.571
UACACUG	-0.431
GACGCAU	-0.262
AUCUCAA	-0.805
AACAUGC	-0.519
CCUCCCA	-0.448

Sequence	RNAcompete 7-mer binding Z-score
GACACAA	-0.454
UCUGCGU	-0.688
GGAACCA	0.53
CACUAGU	-0.496
GGACCAC	0.248
UCACGCU	-0.47
AGGGUAU	3.69
UCGUCUC	-0.662
GCCCCGU	-0.386
CCAAACC	-0.828
GUACUUG	-0.106
AGAUCUA	-0.62
CCACGAG	-0.451
GGGCCCU	-0.318
CGGAAGG	2.53
CUCUAGG	-0.0739
CGCCGGA	-0.383
UCGAGUU	-0.415
CCGGAGU	0.244
GGACUAU	0.000789
ACUCCCC	-0.584
GCUUCCG	-0.636
ACACCUA	-0.691
CAUCAAG	-0.47
CUACGCC	-0.743

Sequence	RNAcompete 7-mer binding Z-score
GGUCCUU	-0.474
GCGUGAG	0.855
UGCCAAC	-0.636
GGAUAAU	1.2
AAGACUC	-0.561
GCAGAGU	0.605
GACUCAU	-0.844
CCCACGA	-0.581
UGGUUCC	-0.149
UUUGAUG	-0.249
GGGCUCG	1.03
ACACUUU	-0.88
UCGAUGU	-0.444
CUGAGGA	0.433
UCGCAUU	-0.555
CAUCGCC	-0.811
CUAGCGC	-0.629
ACUGUCC	-0.714
GCGCGCU	-0.243
GAUGAUA	0.508
ACGGCAG	0.469
AAGGACU	0.901
UAUGGCC	-0.422
CACGAGG	0.417
GGGAACG	3.67

Sequence	RNAcompete 7-mer binding Z-score
ACCUCCA	-0.779
UGGACCG	0.244
ACGCCGA	-0.818
GCAUAGU	0.147
AACUGUC	-0.555
UUCACGG	-0.448
GAAUGCA	0.0723
GCCUAAC	-0.668
GAAUCGC	-0.386
CCCAUCG	-0.629
GAAGUGA	1.5
ACGUCAA	-0.461
AACAUAA	-0.535
CCGGUCA	-0.412
CAGCCGU	-0.795
CGGGGUU	2.77
UCUCGGC	-0.665
